Assay in all cases: Primary Screen for Target Class Profiling of Small Molecule Inhibitors of Methyltransferases
In assay [1] the target is Glycine N-methyltransferase (Homo sapiens) (UniProt Q14749). To be noted: purified enzyme, MTase-Glo SAH luminescence; measured here: GNMT inhibition; at 40 µM; stronger effect = lower value. Put shortly: (§1)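 Each enzyme was reacted with SAM and its substrate, with compounds tested once at 40 uM; SAH formed was read by MTase-Glo luminescence.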
Assay [2] deals with Guanidinoacetate N-methyltransferase (Homo sapiens) (UniProt Q14353). Particulars: purified enzyme, MTase-Glo SAH luminescence; measured here: GAMT inhibition; at 40 µM; stronger effect = lower value. The procedure, abridged: as §1
Assay [3] deals with Histamine N-methyltransferase (Homo sapiens) (UniProt P50135). To be noted: purified enzyme, MTase-Glo SAH luminescence; measured here: HNMT inhibition; at 40 µM; stronger effect = lower value. Put shortly: as §1
Assay [4] has as its target Nicotinamide N-methyltransferase (Homo sapiens) (UniProt P40261). To be noted: purified enzyme, MTase-Glo SAH luminescence; measured here: NNMT inhibition; at 40 µM; stronger effect = lower value. The procedure, abridged:
as §1

The target in assay [5] is Phenylethanolamine N-methyltransferase (Homo sapiens) (UniProt P11086). Particulars: purified enzyme, MTase-Glo SAH luminescence; measured here: PNMT inhibition; at 40 µM; stronger effect = lower value. The procedure, abridged: as §1

The other results are listed elsewhere or left out. Shown are side measurements of this screen, not its main read-out; they come without a call.
% is set by controls: 0 for no effect and ±100 for the full control effect.

Turning to `C[C@@H]1O[C@@H](O[C@H]2[C@H](O[C@H]3CC[C@@]4(C)C(CC[C@]5(C)C4C=C[C@]46OC[C@@]7(CCC(C)(C)C[C@H]74)[C@@H](O[C@@H]4O[C@@H](C)[C@H](O)[C@@H](O)[C@H]4O)C[C@]65C)[C@]3(C)CO)O[C@H](CO)[C@@H](O)[C@@H]2O[C@@H]2O[C@H](CO)[C@@H](O)[C@H](O)[C@H]2O)[C@H](O)[C@H](O)[C@H]1O` (stereo partly drawn), the activity change, negative = inhibition was found to be 3.6% in assay [1]; 12.6% in assay [2]; 3.53% in assay [3]; 0.702% in assay [4]; 10.3% in assay [5].
The corresponding values for `CCC(C)N1C(=O)c2ccc(-c3ccco3)n2CC1(C)C(=O)NC1CCCCCC1` (stereo not drawn) are -1.41%, 0%, 1.82%, -2% and -4.12%.
The corresponding values for `Cc1cc2[nH]c(=O)[nH]c2cc1S(=O)(=O)N1CCCCC1` are -1.88%, -2.31%, -9.47%, -13.4% and -16.4%.
The corresponding values for `Cc1cc(C)cc(Nc2nc(C)cc3nn(CC(=O)Nc4cccc(Cl)c4)c(=O)n23)c1` are 1.99%, 0%, -1.34%, -2.1% and -2.73%.
As to `CCOC(=O)N1CCC(NCCNC(=O)c2ccccc2C)CC1`, the activity change, negative = inhibition in assay [1] was -4.99%; in assay [2], -5.25%; in assay [3] it was 8.17%; in assay [4] it was -16.5%; in assay [5], -1.18%.
The corresponding values for `Cc1ccc(NC(=O)N2CCC3(CC2)CC(Cc2nc(-c4ccccc4)no2)CCO3)cc1C` (stereo not drawn) are -8.06%, -10.1%, -7.68%, -12.1% and -5.87%.
Turning to `CCOC(=O)c1cccc(NS(=O)(=O)c2ccc3c(c2)NC(=O)CC(=O)N3)c1`, the activity change, negative = inhibition is -2.9% in assay [1]; 4.14% in assay [2]; 2.82% in assay [3]; 1.92% in assay [4]; -0.885% in assay [5].
For `Cc1ccc(Nc2nnc(-c3ccc([N+](=O)[O-])cc3)o2)cc1Cl` the same measures were -5.59%, -9.5%, 1.54%, -14.7% and -14.7%.
`CC(C)OCCCNC(=O)CCc1nnc2n(Cc3ccc(F)cc3)c(=O)c3ccccc3n12`: the activity change, negative = inhibition in assay [1] is -11.5%; in assay [2], -2.24%; in assay [3], -8.51%; in assay [4], -0.769%; in assay [5], -11.1%.
The corresponding values for `C=C(C)C(=O)O[C@H]1CC2=CC(C/C(C)=C\[C@H]3OC(=O)C(=C)[C@H]13)OC2=O` (stereo partly drawn) are -1.52%, -9.72%, -2.89%, -18.6% and 0.294%.
The corresponding values for `CC1CCCCC1NC(=O)C1(C)Cn2c(ccc2-c2ccco2)C(=O)N1CCc1ccccc1` (stereo not drawn) are -1.2%, 3.06%, 4.66%, -4.17% and 2.7%.
For the compound `CN(C)CCCNc1c2ccccc2nc2c1[nH]c1ccccc12`, the results for the activity change, negative = inhibition in assay [2], in assay [4] and in assay [5] were 8.7%, -34.2% and -11.6%, respectively.
In the case of `CCOc1ccccc1NS(=O)(=O)c1ccc2[nH]c3c(c2c1)CCCC3`, the activity change, negative = inhibition is 5.1% in assay [1]; 0.26% in assay [2]; 2.64% in assay [3]; -1.74% in assay [4]; 2.1% in assay [5].
With `CC(=O)Nc1ccc(CN2CCC3(C2)C(=O)N(C)c2ccccc23)cc1` (stereo not drawn), the activity change, negative = inhibition in assay [1] is -7.86%; in assay [2], -4.44%; in assay [3] it was -6.27%; in assay [4], -10.3%; in assay [5] it was -8.91%.
The corresponding values for `Cc1oc(C(=O)O)cc1COc1ccc2c(-c3ccccc3)cc(=O)oc2c1` are -22.7%, 0%, 3.83%, -4.2% and -6.24%.
The corresponding values for `COc1ccc(-c2cc(C(=O)N3CCCC3)ccn2)cc1F` are -3.32%, 1.67%, 1.3%, -7.15% and 17.9%.
As for `CCOc1ccc(CN(CCOC)C(=O)C2CC3(CCNCC3)CN2)cc1` (stereo not drawn), the activity change, negative = inhibition was -3.93% in assay [1]; -9% in assay [2]; -2.99% in assay [3]; -11.8% in assay [4]; -20.7% in assay [5].
For `Nc1nc2c(nc(Sc3ccc(Cl)cc3)n2[C@@H]2O[C@@H]3COP(=O)(O)O[C@H]3[C@H]2O)c(=O)[nH]1` the same measures were 1.37%, 6.68%, 9.92%, -8.14% and 3.09%.
In the case of `O=C(Nc1nc2ccccc2s1)c1ccc2c(c1)OCCN(CCC(F)(F)F)C2`, the activity change, negative = inhibition in assay [1] is -6.75%; in assay [2] it was -4.35%; in assay [3], -2.58%; in assay [4], -2.33%; in assay [5], -8.53%.
The corresponding values for `CC(CN1C(=O)c2cc3occc3n2CC1(C)C(=O)NC1CCCC(C)C1C)c1ccccc1` (stereo not drawn) are -0.682%, -6.14%, 5.26%, -0.641% and -1.07%.
The corresponding values for `CCc1ccc(N2C(=O)c3cc(-c4cccs4)nn3CC2(C)C(=O)NC2CCCCC2)cc1` (stereo not drawn) are 1.43%, 0.525%, 8.13%, 6.32% and 1.27%.
For `O=c1[nH]c2ccccc2n1C1CCN(S(=O)(=O)c2ccc3c(c2)OCCO3)CC1` the same measures were -6.15%, 1.22%, 5.44%, -7.12% and -12.6%.
For `Oc1ccc(O)cc1`, the activity change, negative = inhibition is -40.3% in assay [1]; 14.9% in assay [2]; 10.4% in assay [3]; -2.23% in assay [4]; 5.22% in assay [5].
The corresponding values for `Cc1cccc(-c2nnc3n(CCc4ccccc4)c(=O)c4ccccc4n23)c1` are -1.14%, -51.4%, 2.77%, -5.48% and -7.77%.
The corresponding values for `COCC(=O)N[C@@H]1CN(Cc2cn(C)nc2C)C[C@H]1CO` are -1.3%, 3.38%, 0.894%, 4.37% and -1.68%.
For `CCn1nc(C)c(CNC(=O)c2cc(COc3ccc4ncccc4c3)on2)c1C` the same measures were -11.1%, -2.63%, -2.65%, -10.4% and -3.82%.
As to `CN1CCN(c2cccc(Nc3nc4c(-c5ccc(S(C)(=O)=O)cc5)cccn4n3)c2)CC1`, the activity change, negative = inhibition was -6.93% in assay [1]; 4.67% in assay [2]; -6.83% in assay [3]; -12.2% in assay [4]; -12.5% in assay [5].
For `COc1ccc(CN2CCCC3(C2)CN(C)C(=O)O3)cc1C(=O)O` (stereo not drawn) the same measures were -2.83%, -2.67%, -1.46%, -7.63% and -0.403%.
For `COc1ccccc1Nc1ccnc(N2CCCC(C(=O)NCc3cccc(Cl)c3)C2)n1` (stereo not drawn) the same measures were -4.61%, -0.277%, 0.084%, -8.59% and -7.45%.
For `C=C(C)C(=O)O[C@H]1[C@H]2C(=C)C(=O)O[C@@H]2C[C@@H](C)[C@@H]2O[C@@H]2C(=O)[C@](C)(O)[C@@H]1OC(=O)C(=C)C` the same measures were -1.49%, -0.082%, 11%, -13% and -6.29%.

The values are drawn from PubChem BioAssay AID1745853 (National Center for Advancing Translational Sciences (NCATS), 2022).
